This is one part of the list.
test system: PfHDP1 homeodomain (GST-tagged); assay: gcPBM binding intensity (ln(normalized median fluorescence intensity)); higher = stronger DNA binding
Method in brief: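 Each value is the highest Masliner-normalised natural-log median intensity across replicate spots of either orientation of a probe. The probes were primer-extended double-stranded 36-bp intergenic genomic sequences on an Agilent 4 × 180k array, alongside negative controls, exposed for 1 h to GST-tagged P. falciparum DNA-binding domains expressed in E. coli. Bound protein was picked up with Alexa488 anti-GST antibody and scanned at 488 nm.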

Row | Sequence | gcPBM binding intensity (ln)
1 | TTCTACATGAAGTTATAAATTAATATTTTAATTTAT [XGTACX_negctrl_site134] | 5.93
2 | AATAAATAAATAAGTACACACATATAAATATAAATA [CACACA_site6271] | 6.42
3 | CAAGTATTATATTGCGCATGCAAAGAAGGACACAAA [TGCATGCA_site1024] | 7.74
4 | TTATCTAGTACATACATACACACAACCATGTTATGA [CACACA_site3988] | 6.52
5 | ATATATATATATATATATATAATAAAAGATCATTTA [XGTACX_negctrl_site371] | 9.42
6 | ATAATAAAAAGAAAAAGTACAAATGATTATGTTTGA [XGTACX_site3615] | 7.26
7 | TAGATATATAAATACACACACATACACAAAAAAAAA [CACACA_site7652] | 6.97
8 | TATGAATACATTTGTTGTACTTAAATTTCCTTTATT [XGTACX_site5374] | 6.44
9 | TTACTTTTTTTTTTATGTACTTATATTTTTTACACT [XGTACX_site3503] | 6.9
10 | AAATAATTTATGCATACACACATATATATATATATA [CACACA_site4020] | 9.28
11 | TTTTTTATTATTATTATTTTTTATGTATAATAATGT [CACACA_negctrl_site631] | 6.37
12 | TATAAATATCTGAATTGTACAGGTGAAAAAAAAAAT [XGTACX_site1867] | 6.93
13 | ATATATATATATATTTATTCATATATTTTTTGTCTT [TGCATGCA_negctrl_site58] | 9.19
14 | TTTTTATTTTTTCAGTGTACATTTAAATTATCTTAT [XGTACX_site3905] | 8.08
15 | TAAAGAAACGCATCGACGCACACTACAAAATAAAAA [CACACA_site1348] | 6.39
16 | GTACAATCATATACTACATGCAGTTTTTTTTATTGA [TGCATGCA_site230] | 6.83
17 | AAATAAATACATAATACATGCATATTTAATATATAG [TGCATGCA_site135] | 6.28
18 | TTTTCTTTTTCTTGTACACACATAATATGGATGAAA [CACACA_site808] | 7.05
19 | AATTTTTTTTAATGATGTACTTTTTGAAAATAAACT [XGTACX_site4221] | 5.99
20 | TAAATTATTATCCCCTCACACACAAAAATAAAAAGA [CACACA_site2886] | 7.46
21 | TATTTATAAACATACGCACACATTAATATATATATA [CACACA_site9314] | 8.5
22 | GAAGAAGTTTAAAAAGCACACAAAAAAAAAAAAAAA [CACACA_site9088] | 6.29

Row | Sequence | gcPBM binding intensity (ln)
23 | CACAAAATAAATTAAACACACAACATCATATATGTA [CACACA_site846] | 6.57
24 | CTTGTAGATATAAAATGTACAAAAATAAATTGCACA [XGTACX_site4409] | 8.36
25 | AGATATTCTACTATGTGTACATATATATATATAATT [XGTACX_site5060] | 6.82
26 | TTTTTCTTTCTATTTATCAATATTAAAAAAAAAAAA [CACACA_negctrl_site1629] | 6.15
27 | TTTTTATAATGATACATATATTATTTTATTCTTAAT [CACACA_negctrl_site124] | 6.18
28 | TATACATGTATATATTGTACATATGTTTTTTTTACA [XGTACX_site3300] | 6.85
29 | TTTTTTCAAATTTTCTTTTTTCTTTTGTTTTTTTTG [CACACA_negctrl_site380] | 5.84
30 | TTACTCATGAAAGATACACACATTCGTTATTTATAT [CACACA_site7517] | 6.44
31 | AATGGATATTTCTTTATATATATCTTATTTGATTAT [XGTACX_negctrl_site284] | 5.92
32 | TTTCTATTCCATTCAACACACAAAAATGTATGCTTT [CACACA_site1072] | 6.73
33 | TATAAACGTATAATATGTACACACACATATATACAA [XGTACX_site1686] | 6.52
34 | ATTATATAGAATTGTACATGCGAATTGTATAACGAT [TGCATGCA_site125] | 7.33
35 | TATTTTTTTTTTTTTTTTTTTTTTATATATACATAT [CACACA_negctrl_site23] | 6.1
36 | AAAAAAAAAAAAAAAAATATATTTATGAAATAAAAA [TGCATGCA_negctrl_site262] | 6.47
37 | AAAAAAAATTTTATCTGTACACATTTTTTTCTTTTT [XGTACX_site4229] | 6.31
38 | ATATAATTTATGTGCACACACTCCTATTTTTAGCTT [CACACA_site50] | 11.3
39 | AAAAAGTAAAAGAAAGCACACACACCGGTATATATG [CACACA_site9281] | 6.47
40 | ATAACAAAAATCCTTGTGCACTATTTTAATAGAGTC | 10.5
41 | GTAGTCCAAAAAAAGCGTACACAGAAAAAAAAAAAA [XGTACX_site4273] | 6.08
42 | ACATTGCACCCGTGCACACATAGAAAAATAATTCTT [CACACA_site409] | 10.3
43 | TACATCTTACTACTTATAATATAATATAGTATGAAT [TGCATGCA_negctrl_site8] | 6.24
44 | CATTATGATTAAATATGTACATATTATTATATAAAT [XGTACX_site2477] | 6.47

Row | Sequence | gcPBM binding intensity (ln)
45 | TACAATATATTTATAGTGCATATTACTTTTAACTTT | 8.29
46 | TCGTAATAATATAAATGTACTTTATTAATTAAAAGA [XGTACX_site3416] | 6.2
47 | AACGGGTAATGCACAAAAAAAAAAAAATAAAATAAA [TGCATGCA_negctrl_site474] | 10.9
48 | AAATTATTTTGTTATCATTATATATAGATTGAATAT [XGTACX_negctrl_site165] | 6.53
49 | TTCTTTTAAATTAGCTGTACGGTTTTCTACATGCAT [XGTACX_site356] | 6.93
50 | ATGTAATTCTTTTACTTTTTTTTTTTTTTTTTTTTT [CACACA_negctrl_site979] | 6.8
51 | TTATCATATGTATGCATACACACAAAAAATTATATA [CACACA_site397] | 6.83
52 | CAAACAAATATATGTTGTACTTATTATATATACATA [XGTACX_site2998] | 6.4
53 | ATAAATGAGCCATATTAAATCCGTTACACGGGTGTG [CACACA_negctrl_site1368] | 5.89
54 | AACAAAATAAGACACACACACAAATGTACCTATATA [CACACA_site7189] | 6.75
55 | TCTTTTTTAAATAAAAGTACAAAAAAAAATAAAAAA [XGTACX_site2670] | 6.63
56 | AAAAAAAATATGAAAACACACATATATAAATAAATA [CACACA_site113] | 6.44
57 | TAATATATATGTATGGCACACACGGATAAATATATA [CACACA_site930] | 6.77
58 | CATGCCTTTAAAAAGGTGCAAACATTTTCACAAACA | 8.87
59 | AATAATATATATTACTGTACTAATATAAGGGACATC [XGTACX_site3744] | 7.1
60 | TTGTCAAAAATTACACACATAAATGAATAAATAAAT [XGTACX_negctrl_site541] | 6.28
61 | ATTTATGAAAAAAATACATGCATGTCCATATAAATT [TGCATGCA_site505] | 6.47
62 | TTATTTTCTACAAATTGTACATATTTTTTACTACTC [XGTACX_site1394] | 6.93
63 | CGAATAAATATATGTAGTACATGTTGTAGATAATTT [XGTACX_site1218] | 6.62
64 | TCTTTCTATTAAACATGTACTTGTCTAAAGACATAA [XGTACX_site8564] | 6.55
65 | TATATATATTTAAATTGTACATATATTATTCATATG [XGTACX_site911] | 6.37
66 | TTTTATAATTTATCTAAAAAAAAATAAAATAAAATG [TGCATGCA_negctrl_site429] | 6.03

Row | Sequence | gcPBM binding intensity (ln)
67 | ATAAAATAAAATAAAAGTACATAAATATATATATAT [XGTACX_site6110] | 8.63
68 | TTTTTTTTTCTTTGCACACAGATAACTTGAAATTTG [CACACA_site2185] | 8.74
69 | ATAAGGATCAGACACAAACACACATATATATATATA [CACACA_site558] | 9.17
70 | AAATAATTCATATGTTGTACAGTAATTAAATTTTCT [XGTACX_site6343] | 6.31
71 | ATAATTAATCCAAAATGTACTTACATTTTATATGAA [XGTACX_site8888] | 6.32
72 | ACATATATATATATTACACACACACTAATAAAATAA [CACACA_site7920] | 7.18
73 | TTTCAAGAATTATATAAACACACATACATACACCCA [CACACA_site8592] | 7.09
74 | ATATATATATTTTATTGTACAAAAAAAAAAAAAAAA [XGTACX_site6803] | 7.4
75 | TTGTTATGCATTGGTTGTACATAAGTATAAGTAATT [XGTACX_site5401] | 6.59
76 | CCATTATACACAATATGTACATATATATAATCATTT [XGTACX_site7942] | 7.38
77 | AAAAAAAAAATATGTACACACATATAAAATACATAA [CACACA_site6869] | 6.52
78 | ATAGGATTCTCAAAGTGTACTTGTCTACTGTAGTTT [XGTACX_site4202] | 6.22
79 | TTTGTTTGTAAAATGTTGCACTTTCTTTTGCTGATA | 8.05
80 | TGTTTTGTTATTTTTATTTATATAAATAAAGCTATA [GTGCAC_negctrl_site88] | 7.01
81 | ATATATATATTATATGCACACTAATAAGACTATTTA [CACACA_site5880] | 9.95
82 | CATAAATACAGTAACACACACAAAAAAATATGAATA [CACACA_site6066] | 6.94
83 | AAAAAAAAAAAAAAAAGTACAAATTTAAAAATGTGT [XGTACX_site112] | 6.49
84 | TTGGTTTCTTGTTTTTGTACCCATAATTTGTAATAT [XGTACX_site1248] | 7.19
85 | AATAATAAAATAAAAGTGCATTAATTATAATTCTTT [GTGCAC_site9491] | 8.2
86 | GAGGAAAAAAAAAAAAGTACATTATATAAGAAAATT [XGTACX_site2610] | 6.11
87 | TTAAATATTTATATTTGTACACAATCAATCATACAC [XGTACX_site5793] | 6.81
88 | AATTATAATAATAATAGTACATAAGTATATAAATAA [XGTACX_site2400] | 6.39

Source: the supplement of paper PMC11417369
